From PubChem BioAssay AID686979 (National Center for Advancing Translational Sciences (NCATS), 2013)
Among all 420,000 compounds or so, about 50,000 (12%) were called active. This list was built around the results that the source calls inconclusive (neither active nor inactive); the mix of calls is not that of the screen. Calls follow the shape of the dose curve; as a rule, active = well fitted inhibition curve with a large enough effect; inconclusive = small, poorly fitted or top-dose-only effect; inactive = flat fitted curve, though single readings scatter. No potency is given beside an inconclusive call; the fits are too rough.

Test: qHTS for Inhibitors of human tyrosyl-DNA phosphodiesterase 1 (TDP1): qHTS in cells in presence of CPT; also: nearly all actives have a fitted effect of over 55% in size
Settings: chicken DT40 Tdp1-/-;hTDP1 cells + 20 nM CPT, ATP luminescence, 48 h; activity change, negative = growth inhibition: at 46.2 µM (top of the series) unless noted
How it was run: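 Chicken DT40 Tdp1-/- cells stably complemented with human TDP1 were seeded at 400 cells/well in medium containing 20 nM camptothecin, exposed to pin-transferred compounds, and grown at 37 °C for at least 48 hr. Viability was read as ATP luminescence.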
% is scaled to controls: 0 for no effect and ±100 for the full control effect; potency is read from the fitted curve at half-maximal effect; tags tell the direction and shape of the fitted curve.

Row | SMILES | Potency | activity change, negative = growth inhibition
1 | O=C(NC1CC1)c1cc2cc3ccccc3nc2s1 | active: 23.1 µM | 
2 | CC(C)NC(=S)N/N=C/C1=CCC2CC1C2(C)C (stereo not drawn) | inconclusive [inhibitor, single point] | 
3 | COc1ccccc1S(=O)(=O)n1cc(Cc2ccccc2)c(N)n1 | inactive | 
4 | COc1ccc(S(=O)(=O)NC(CC(=O)NCCc2ccc(OC)c(OC)c2)C(C)C)cc1 (stereo not drawn) | inactive | 
5 | O=C(NCCc1nc2ccccc2n1CCCOc1ccccc1)C1CCCCC1 | active: 10 µM | 
6 | O=C(COC(=O)CNC(=O)c1ccccc1)Nc1cccc(Br)c1 | inactive | 
7 | CN(CCO)c1cc(N2CCC3(CC2)OCCO3)c2nonc2c1[N+](=O)[O-] | inconclusive [inhibitor, partial curve, poor fit] | 
8 | Cc1c(NC(=S)NC(NC(=O)C(C)C)C(Cl)(Cl)Cl)c(=O)n(-c2ccccc2)n1C (stereo not drawn) | active: 14.6 µM | 
9 | N=c1c(C(=O)NCC2CCCO2)cc2c(=O)n3ccccc3nc2n1C1CCCC1 (stereo not drawn) | inactive | 
10 | COc1cc(CNC2CCCC2)cc(Cl)c1OCc1ccc(F)cc1 | inconclusive [inhibitor, single point] | 
11 | CC(=O)c1cccc(NC(=O)N2CCC(c3ccc(C)cc3)C2)c1 (stereo not drawn) | inconclusive [inhibitor, single point] | 
12 | COC(=O)CC1C(C)(C)C(OC(C)=O)C2CC3=C4CC(=O)OC(c5ccoc5)[C@]4(C)CCC3[C@@]1(C)C2=O (stereo partly drawn) | inconclusive [inhibitor, single point] | 
13 | CCc1nn2c(-c3ccco3)ccnc2c1-c1ccc(F)cc1 | inconclusive [inhibitor, single point] | 
14 | COc1ccc(Br)c(Cn2c(C)c(C(=O)NCCC#N)sc2=O)c1 | inactive | 
15 | CCCCN(C(=O)c1cc(S(=O)(=O)N2CCCCCC2)ccc1OC)c1ccccc1 | inconclusive [inhibitor, single point] | 
16 | Cc1ccc(S(=O)(=O)N2CCCC2CNC(=O)c2ccc3c(c2)OCO3)cc1 (stereo not drawn) | inconclusive [inhibitor, single point] | 
17 | CNC(=S)NNC(=O)c1cc(C(C)(C)C)nn1Cc1ccc(F)cc1 | inconclusive [inhibitor, single point] | 
18 | CN(C)/C=C/C(=O)c1ccc2noc(-c3ccc(F)cc3)c2c1 |  | inconclusive: -20.7% [inhibitor]
19 | O=C(C1CCCC1)N1CCN=C1SCc1cccc([N+](=O)[O-])c1 | inactive | 
20 | Cc1ccc(N(C(=O)c2ccc(S(=O)(=O)N3CCOCC3)cc2)C2C=CS(=O)(=O)C2)cc1C (stereo not drawn) | inactive | 
21 | CCCOc1ccc(-c2nonc2NC(=O)COc2ccc(C)cc2)cc1OCCC | inactive | 
22 | CN(CCO)c1nc(-c2cccs2)nc2ccccc12 | active: 17.8 µM | 
23 | NC(=O)CC(NC(=O)Cc1ccc(Br)cc1)c1ccc(N2CCC(Cc3ccccc3)CC2)c([N+](=O)[O-])c1 (stereo not drawn) | inconclusive [inhibitor, single point] | 
24 | CC(C)(C)NC(=O)Cn1cc(S(=O)(=O)Cc2ccc(F)cc2)c2ccccc21 | inactive | 
25 | O=S1(=O)CC(O)C(Nc2ccccc2Cl)C1 (stereo not drawn) | inactive | 

Row | SMILES | Potency | activity change, negative = growth inhibition
26 | Cc1ccccc1OCC(=O)Nc1nnc(C2CC2)s1 | inconclusive [inhibitor, single point] | 
27 | COc1cc(F)ccc1S(=O)(=O)N1CCN(c2ccccc2)CC1 | inactive | 
28 | COC1=C[C@@H](C)C2CC3OC(=O)C[C@H]4C(C)=C(OC)C(=O)C([C@@]2(C)C1=O)[C@@]34C (stereo partly drawn) |  | inactive: -11.5% [at 9.04 µM]
29 | CCOC(=O)CNC(c1ccccc1)c1cc(Br)ccc1NC(=O)c1ccc(Cl)cc1 (stereo not drawn) | active: 10.3 µM | 
30 | COc1ccccc1NC(=S)NCCSc1ccc(C)cc1 | inconclusive [inhibitor, single point] | 
31 | COc1ccc(CN(C)C(C)C(=O)Nc2cccc3ccccc23)cc1 (stereo not drawn) | inconclusive [inhibitor, single point] | 
32 | COCc1cc(C)n(CC(=O)Nc2ccc3c(c2)OCO3)c(=O)c1C#N | inactive | 
33 | C=C1CCN(c2ccc(C(=O)NCc3ccc(OC)cc3)cc2[N+](=O)[O-])CC1 | active: 20.6 µM | 
34 | CC1(C)CC(=O)C(C=Nc2ccc(O)cc2)=C(O)C1 | inconclusive [inhibitor, single point] | 
35 | CC(C)CC(N)c1csc(Nc2ncccn2)n1 (stereo not drawn) | active: 9.2 µM | 
36 | Cc1ccc(S(=O)(=O)c2nnn(CC(=O)Nc3ccccc3C)c2N)cc1C | inconclusive [inhibitor, single point] | 
37 | CCOC(=O)Cn1c(=NC(=O)CSC(C)=O)sc2cc(OC)ccc21 | inconclusive [inhibitor, single point] | 
38 | COc1cc(C(=O)O/N=C2\CCCc3c2ccc(OC)c3[N+](=O)[O-])cc(OC)c1OC | active: 10.3 µM | 
39 | COc1ccc(-n2cc(-c3ccccc3)[n+]3c2CCCCC3)cc1 | active: 5.8 µM | 
40 | O=C(Cc1cccc2ccccc12)OCn1nnc2ccccc2c1=O | inactive | 
41 | COC(=O)c1sc(-c2ccccc2)cc1NC(=O)c1ccc(F)cc1 | inconclusive [inhibitor, single point] | 
42 | Cc1ccccc1NC(=O)NCC1CCN(c2ccc(S(=O)(=O)N3CCOCC3)cc2)CC1 | active: 23.1 µM | 
43 | CCOC(=O)CCc1c(C(=O)OCC)[nH]c(CC)c1C(=O)OCc1ccccc1 | inconclusive [inhibitor, single point] | 
44 | Cc1cccc(C(C)C)c1NC(=O)C1CN(S(=O)(=O)c2ccccc2)CCN1S(=O)(=O)c1ccccc1 (stereo not drawn) | active: 25.9 µM | 
45 | CCCC(=O)N(Cc1cc2ccccc2[nH]c1=O)c1ccccc1OC |  | inconclusive: -34.7% [inhibitor]
46 | Cc1cccc([C@@H]2C[C@H]3CN(Cc4cccc(Cl)c4)C(=O)[C@]34CCCN24)n1 | inconclusive [inhibitor, single point] | 
47 | O=S(=O)(O)c1cc(O)c2c(O)c(N=Nc3cc(Cl)ccc3O)c(S(=O)(=O)O)cc2c1 | active: 18.4 µM | 
48 | O=[N+]([O-])c1ccc(N=Nc2ccc(O)c3ccccc23)cc1 | active: 14.6 µM | 
49 | CC1CCC2C(=O)N(c3ccccc3OC(=O)c3ccccc3F)C(=O)C2C1 (stereo not drawn) | inactive | 
50 | CCn1cc(C2=NC(C)CO2)c2ccccc21 (stereo not drawn) | inconclusive [inhibitor, single point] | 

Row | SMILES | Potency | activity change, negative = growth inhibition
51 | O=C(CCC(=O)Nc1cccnc1)Nc1cccnc1 | inactive | 
52 | COc1ccccc1N1CCN(Cc2cnc3ccc(Cl)cn23)CC1 | active: 23.1 µM | 
53 | COC(=O)c1ccccc1S(=O)(=O)N1CCC(C(=O)NCc2ccccn2)CC1 | inactive | 
54 | CCS(=O)(=O)n1nc(-c2ccccc2)nc1SCc1ccccc1 | inconclusive [inhibitor, single point] | 
55 | CC(C)(C)c1ccc(C(=O)CCC(=O)NCc2ccccc2)cc1 | inconclusive [inhibitor, single point] | 
56 | CCN(CC)CCN(C(=O)c1ccc(Br)s1)c1nc2cc3c(cc2s1)OCCO3 | inactive | 
57 | COc1ccc(C2C(C#N)=C(N)Oc3n[nH]c(C)c32)cc1CN1CCN(c2ccc(F)cc2)CC1 (stereo not drawn) | inconclusive [inhibitor, single point] | 
58 | CC(C)N(C(=O)COC(=O)c1cccc(N(C)C)c1)c1ccccc1 | inconclusive [inhibitor, single point] | 
59 | CCc1nc2c(OCC=C(C)C)cccn2c1N(C)C(=O)c1ccc(OC)cc1 | active: 23.1 µM | 
60 | COC(=O)c1c(OCC2CCCN(C)C2)cc(=O)n2c1CCN(Cc1ccc(OC)c(O)c1)CC2 (stereo not drawn) | inactive | 
61 | O=C(NCc1ccccc1F)C(=O)NCC(c1cccs1)S(=O)(=O)c1cccs1 (stereo not drawn) | inactive | 
62 | CCC(C(=O)NC1CCCC1)N(C(=O)Cn1nnc(-c2ccc(C)o2)n1)c1ccccc1OC (stereo not drawn) | inconclusive [inhibitor, single point] | 
63 | O=C(Nc1ccc2sccc2c1)c1ccc(Cl)s1 | inconclusive [inhibitor, single point] | 
64 | COC(=O)/C=C/c1c(C)nc(NCc2ccccc2)nc1Cl | inconclusive [inhibitor, single point] | 
65 | O=C(CCC1N=C2c3ccccc3N=C(SCc3ccccc3Cl)N2C1=O)NCc1cccs1 (stereo not drawn) | inconclusive [inhibitor, single point] | 
66 | CCCCSCc1ccc(C(=O)O)o1 |  | inconclusive: -34.8% [inhibitor]
67 | CCN1CCN(S(=O)(=O)c2ccc(Cl)c(C(=O)Nc3ccccc3N3CCCC3)c2)CC1 | inconclusive [inhibitor, single point] | 
68 | CS(=O)(=O)c1ccc(C(=O)OCC(=O)NC(=O)C2COc3ccccc3O2)cc1[N+](=O)[O-] (stereo not drawn) | active: 16.4 µM | 
69 | O=C1CCC(C(=O)N2CCN(c3ccccc3)CC2)CN1Cc1ccc(Cl)cc1 (stereo not drawn) | inconclusive [inhibitor, single point] | 
70 | CCc1ccc(NC(=O)N(C2CCCCC2)C(C)c2cccnc2)cc1 (stereo not drawn) | inactive | 
71 | CCN(CC)S(=O)(=O)c1cc(NC(=O)CSc2nc3c(cc2C#N)C(=O)CC(C)(C)C3)ccc1C | inconclusive [inhibitor, full curve, poor fit] | 
72 | C=CCn1c(NC(=O)c2ccccc2Cl)c(C#N)c2nc3ccccc3nc21 | active: 16.4 µM | 
73 | CCO[C@H]1OC(C(=O)N2CCN(Cc3ccc4c(c3)OCO4)CC2)=C[C@@H](C2CC2)[C@@H]1CCCO | inconclusive [inhibitor, partial curve, poor fit] | 
